Assay results: PubChem BioAssay AID1159614 (National Center for Advancing Translational Sciences (NCATS), 2016)
Among all 45,000 compounds or so, about 65 (0.1%) were called active. The call rests on the fitted dose curve; in most records, active means well fitted activation curve with a large enough effect; inconclusive means small, poorly fitted or top-dose-only effect; inactive means no such curve, though single readings can be large or run the other way. This is one part of the list.

Molecular target: Galactocerebrosidase (Homo sapiens) (UniProt P54803)
Test: A Novel Cell-Based Assay to Identify Small Molecules for B -Galactocerebrosidase; further: 0% is about no effect; nearly all actives have a fitted effect of over 65% in size
Conditions: 145M-Twi-hGALC-G270D cells (Twitcher mouse brain line with human GALC G270D), HMU-beta-Gal fluorescence, 48 h; series mostly up to 57.5 µM; activation: at the top concentration
In short: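 Fluorogenic HMU-b-Gal hydrolysis (0.1 mM final, pH 5.2 citrate-phosphate with 1 mg/mL sodium taurocholate; carbonate stop buffer) measures mutant GALC activity after compound treatment of live 145M-Twi Twitcher brain cells stably carrying human GALC-G270D, with wild-type GALC line alongside; activation sought.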

Chain of UniProt P54803 (P54803 whole entry, looked up): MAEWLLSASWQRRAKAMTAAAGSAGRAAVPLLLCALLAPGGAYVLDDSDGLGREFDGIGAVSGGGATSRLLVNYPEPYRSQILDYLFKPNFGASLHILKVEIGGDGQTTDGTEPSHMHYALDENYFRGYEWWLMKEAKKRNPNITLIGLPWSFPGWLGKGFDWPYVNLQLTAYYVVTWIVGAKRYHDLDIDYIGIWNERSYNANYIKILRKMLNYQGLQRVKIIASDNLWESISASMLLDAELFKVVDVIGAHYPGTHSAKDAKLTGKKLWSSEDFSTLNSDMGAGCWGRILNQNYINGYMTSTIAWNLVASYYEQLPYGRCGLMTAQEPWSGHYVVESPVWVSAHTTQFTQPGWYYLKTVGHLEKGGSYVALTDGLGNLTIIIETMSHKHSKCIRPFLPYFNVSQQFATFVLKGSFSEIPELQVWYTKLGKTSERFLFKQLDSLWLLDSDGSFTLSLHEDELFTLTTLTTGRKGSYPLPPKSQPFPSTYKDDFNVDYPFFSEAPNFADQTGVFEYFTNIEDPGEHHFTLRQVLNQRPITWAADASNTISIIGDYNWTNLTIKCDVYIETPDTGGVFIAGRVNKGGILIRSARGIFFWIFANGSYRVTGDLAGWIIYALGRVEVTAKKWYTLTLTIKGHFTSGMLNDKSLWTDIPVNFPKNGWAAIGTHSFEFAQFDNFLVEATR

activation, inactive:
CCC(Sc1nc2ncccc2[nH]1)C(=O)Nc1ccccc1F (stereo unspecified) -21.5%
CCC(=O)NCc1nc2ccccc2n1Cc1ccccc1 -12.8%
Cc1ccc(Cl)cc1NC(=O)N1CCC(CN2CCc3ccccc3C2)CC1 -17.5%
COC(=O)c1ccc2c(=O)n(CCCCCC(=O)N3CCN(c4cccc(C)c4C)CC3)c(=O)[nH]c2c1 -16.6%
CCOc1ccc(NC(=O)c2cc3nc(-c4ccc(OC)cc4)cc(C(F)(F)F)n3n2)cc1 -21.1%
Cn1nc(-c2ccccc2F)c2cc(C(=O)N3CCN(c4ccccc4F)CC3)sc21 -9.92%
CCOC(=O)c1c(C)[nH]c(C)c1S(=O)(=O)N1CCC(C(=O)NCc2ccc(OC)cc2)CC1 -12%
Cc1c(NC(=O)Cc2ccccc2)cccc1-c1nc2cccnc2s1 -20.1%
COCCCNc1nc2c(-c3cccc(Br)c3)nnn2c2ccccc12 -7.5%
Cn1cccc1-c1cc2n(n1)CCC(=O)N2CC(=O)Nc1ccc(F)cc1Cl -1.42%
CCCCOc1ccc(C(=O)Nc2ccc3c(c2)N(C(C)=O)CCC3)cc1 -5.88%
CCOc1cc(CNc2ccc(O)cc2)cc(Cl)c1OCc1ccccc1 -14%
Cc1ccc(S(=O)(=O)N2CCCc3cc(NC(=O)c4cccc(Cl)c4)ccc32)cc1 -10.4%
Cc1cccc(-c2cc(-c3ccccc3)nc(SCC(=O)Nc3ccccc3)c2C#N)c1 -8.46%
CCC(Cn1nnc2ccccc2c1=O)NC(=O)Nc1ccccc1Cl (stereo unspecified) -13.6%
Cc1ccc(S(=O)(=O)N(CC(O)Cn2c3ccccc3c3ccccc32)c2cccc(C(=O)NCCO)c2)cc1 (stereo unspecified) -7.11%
O=C(CSc1nc2c([nH]c3ccccc32)c(=O)n1-c1ccc(F)cc1)Nc1ccc2c(c1)OCCO2 -10.9%
CCS(=O)(=O)N1CCc2cc(C(=O)NCc3ccc(C)cc3)ccc21 4.19%
CCOC(=O)N1CCN(CCC(=O)Nc2cccc(F)c2)CC1 -18%
COc1ccc(-c2nc3n(n2)C(c2ccccc2)C(C(=O)Nc2cccnc2)=C(C)N3)cc1 (stereo unspecified) -18.5%
COCCNC(=O)CN1C(=O)CCn2nc(-c3cn(C)c4ccccc34)cc21 -9.06%
Cc1c(C(=O)NCc2ccc(Cl)cc2)sc2nc3n(c(=O)c12)CCC3 -14.9%
COc1ccc2c(Sc3ccc(C)cc3)c(C(=O)NC(C)c3ccccc3)[nH]c2c1 (stereo unspecified) -17.5%
CCc1ccccc1NC(=O)c1ccc(F)c(S(=O)(=O)N2CCN(c3ccccc3OC)CC2)c1 -3.64%
CC(=O)N(CC(O)CO)c1c(I)c(C(=O)NCCO)c(I)c(C(=O)NCC(O)CO)c1I (stereo unspecified) -13.8%
Cc1c(C(=O)O)oc2c1-c1nn(Cc3ccccc3Cl)cc1CC2 -11.7%
COc1cc([C@@H]2Nc3c(F)cccc3[C@@H]3C=CC[C@@H]32)cc(Br)c1OC -7.67%
O=C(Nc1nc2c(F)cccc2s1)c1ccc2c(c1)OCCO2 -16.3%
Cc1ccc(CNC(=O)Cn2c(-c3cccs3)cc3cc(Cl)ccc32)cc1 -15%
CCOC(=O)CCNC(=O)N1CCN(S(=O)(=O)c2ccc3c(ccn3C)c2)CC1 0.96%
CC(=O)c1ccc(NC(=O)c2cc3c(=O)oc4ccc(C)cc4c3s2)cc1 -54.2%
Cc1ccc(N2C(=O)C(CC(=O)Nc3ccc(F)cc3)N(Cc3ccc4c(c3)OCO4)C2=O)cc1 (stereo unspecified) -17.6%
Cc1ccc(CNC(=O)c2ccc3c(c2)NC(=O)C(CS(=O)(=O)Cc2cccc(F)c2)N3)cc1 (stereo unspecified) 10.6%
Cc1ccc(Sc2ccc(N3CCC(C(=O)Nc4ccc(Cl)cc4)CC3)nn2)cc1 -13.5%
CCc1ccc(C(=O)c2cn(CC(=O)NCc3ccc(C)cc3)c3nc(C)ccc3c2=O)cc1 7.88%
Cc1ccc(C(=O)Nc2ccc(S(=O)(=O)N(Cc3ccccc3)c3ccccc3)cc2)cc1 -12.5%
Cc1cccc(N2C(=O)C(CC(=O)Nc3cccc(F)c3)N(CCc3ccncc3)C2=O)c1 (stereo unspecified) -2.42%
O=S(=O)(c1ccc(Cl)cc1)c1nc(-c2ccccc2F)oc1NCc1ccccc1 -7.18%
COc1ccc(NC(=O)C2=CC(c3ccc4c(c3)OCO4)=NS(=O)(=O)N2C)cc1OC -8.87%
O=C(CSCn1nnc2c(=O)[nH]c(Cc3ccc(F)cc3)nc21)Nc1ccccc1 -26.3%
COc1ccc(-c2noc(-c3ccc(NCc4cccnc4)c([N+](=O)[O-])c3)n2)cc1OC -17.4%
Cc1cc(C)cc(-n2c(C)nc3cc(C(=O)O)ccc32)c1 5.22%
CCOc1ccc(C2=CC(c3cccc(Br)c3)n3c(nc4ccccc43)N2)cc1Cl (stereo unspecified) -12.6%
Cc1ccccc1OCCn1c(=N)n(C(C)C)c2ccccc21 -11.3%
Cc1ccc(N2CCN(C(=O)C3CCN(S(=O)(=O)c4ccc5c(c4)oc(=O)n5C)CC3)CC2C)cc1 (stereo unspecified) -33.9%
O=c1c2sc3ccccc3c2n(Cc2cccc(Cl)c2)c(=O)n1Cc1ccco1 -2.99%
Cc1cc(C)c(S(=O)(=O)NCCc2cc3ccc(C)c(C)c3[nH]c2=O)c(C)c1 -4.85%
CC(=O)c1ccc(NC(=O)CCc2c(C)nn(-c3ccc(N4CCOCC4)nn3)c2C)cc1 -4.22%
Cc1cccc(OCc2nc(CC(=O)Nc3ccc(C)c(C)c3)cs2)c1 -12.4%
CCOc1ccc(NC(=O)C2CCN(C(=O)N3CC(C)Oc4ccc(Cl)cc43)CC2)cc1 (stereo unspecified) -4.91%
COc1cc(-c2cc3n(C)c(C)c(CCC(=O)O)c(=O)n3n2)cc(OC)c1OC 2.72%
CCCn1c(CN2CCN(c3ccc(OC)cc3)CC2)nc2c1c(=O)[nH]c(=O)n2C -10.9%
Cn1c(=O)c2c(ncn2CC2OCCO2)n(C)c1=O -15.5%
O=C(Nc1ccc2oc(-c3cc(Br)ccc3Cl)nc2c1)c1cc2ccccc2o1 -17%
CC(C)CC(=O)Nc1nnc(S(=O)(=O)N(CC(C)C)c2ccccc2)s1 5.25%
Cc1cc2oc(C(=O)Nc3ccc(S(=O)(=O)N(C)Cc4ccccc4)cc3)cc(=O)c2cc1C -18.5%
Cc1ccc(CNC(=O)CCC(=O)N2CC3CCCN3c3ccccc32)cc1 (stereo unspecified) -9.03%
COc1ccccc1N1CCN(c2ccc(NC(=O)c3ccc(C)cc3)cc2C(=O)O)CC1 -8.73%
Cc1ccc(NC(=O)CCCn2c(=O)c3cccn3c3ccccc32)c(Cl)c1 -0.927%
Cc1c(CNC2CCCCC2)c(C(=O)O)c(C)n1Cc1c(F)cccc1Cl -13.7%
COc1ccc(CCNC(=O)CCc2c(C)nc3c(c(C)nn3-c3ccc(C)c(C)c3)c2C)cc1OC -22.7%
COc1ccccc1CNC(=O)c1cc2cc3ccc(Cl)cc3nc2o1 -24%
CCOc1ccccc1NC(=O)Cn1c(=O)n(CCC(=O)NCc2ccc3c(c2)OCO3)c(=O)c2ccccc21 -12%
COc1cc(OC)c(NC(=O)c2csc3c2CCC(C)C3)cc1Cl (stereo unspecified) -5.53%
COc1ccc(CNC(=O)c2cnc3sc(N4CCOCC4)nn3c2=O)cc1 4.77%
COc1cc(OC)c(NC(=O)N2CCSc3ccccc32)cc1Cl -28.7%
Cc1cc(Cl)ccc1NC(=O)c1cccc(NC(=O)N2CCSc3ncccc32)c1 -6.21%
O=C(CSC1=Nc2ccccc2C2=NC(CCC(=O)NC3CCCCC3)C(=O)N12)Nc1cccc(C(F)(F)F)c1 (stereo unspecified) -13.6%
COc1ccc(C(=O)Nc2cc3c(cc2C(=O)c2ccccc2Cl)OCCO3)cc1 -12.9%
Cc1ccc(CNC(=O)Cn2cc(S(=O)(=O)Cc3ccccc3Cl)c3ccccc32)cc1 -5.86%
CCOc1ccc(NC(=O)C(CC)n2c(=O)c(-c3ccccc3NC(C)=O)nc3ccccc32)cc1 (stereo unspecified) -40.6%
O=C(CCOc1ccccc1)N(Cc1cccnc1)c1nc2c(F)cc(F)cc2s1 -21.4%
Nc1nnc(SCC(=O)Nc2ccc(Cl)cc2)s1 -11.3%
COc1ccccc1CNC(=O)c1ccc(Cn2c(SCc3ccccc3)nc3cccnc32)cc1 -28.6%
CCNC(=O)CC1C(=O)N(c2ccc(F)cc2)C(=O)N1CCOC (stereo unspecified) -6.08%
O=C(CCc1ccccc1)NCc1nc2cccnc2n1Cc1ccc(F)cc1 2.73%
N#Cc1ccccc1CN1C(=O)c2ccccc2Sc2ccc(C(=O)OCc3ccco3)cc21 19.8%
CCCCCCCC(=O)OCC(COC(=O)CCCCCCC)OC(=O)CCCCCCC -11.6%
CCOc1ccc(C(=O)N2CCC(c3nnc(-c4ccccc4OC)o3)CC2)cc1 -18.8%
COC(=O)C(CCSC)NC(=O)C1CCN(c2ncnc3c2nc2n3CCCCC2)CC1 (stereo unspecified) -6.14%
CCOC(=O)c1c(C)oc2nc(C)nc(NCCCN3CCN(c4ccccc4)CC3)c12 -19.8%
CCOc1ccc(NC(=O)CCc2c(C)nc3nc(C)nn3c2C)cc1 -10.4%
Fc1ccc(-n2ncc3c(NC4CCCCCC4)ncnc32)cc1 -14.2%
CCOc1ccc(OCC)c(NC(=O)c2cc(S(=O)(=O)N3CCCC3)cn2C)c1 1.54%
COc1ccc(NC(=O)CN2CCN(Cc3ccccc3)S2(=O)=O)c(OC)c1 -17.2%
CCOC(=O)N1CCc2c(sc3c2c(=O)n(-c2ccccc2)c(=O)n3CC(=O)Nc2ccc(OC)cc2OC)C1 -15.8%
CC1CCc2c(sc(NC(=O)CCCOc3ccccc3)c2C(N)=O)C1 (stereo unspecified) -5.24%
COc1ccc(CCNc2ncnc3c2nnn3C)cc1 -25.4%
COC(=O)c1sc2cccc(F)c2c1S(=O)(=O)N1CCN(c2cccc(C)c2)C(C)C1 (stereo unspecified) -7.92%
Cc1nc2ccc(S(=O)(=O)N(CC(=O)Nc3ccc(F)cc3)Cc3ccccc3)cc2s1 -21%
COC(=O)c1ccc(Cn2nnc3c(=O)[nH]c(C4CCCN(S(=O)(=O)c5ccccc5Cl)C4)nc32)cc1 (stereo unspecified) -10.6%
Cc1ccc(-c2nnc3c4ccccc4c(C)nn23)cc1NC(=O)c1ccccc1 -15.6%
CCOC(=O)c1cnc2c(Cl)cc(Cl)cc2c1Nc1ccccc1OC -14.3%
COc1ccc(-c2cn3c(C)c(C(=O)Nc4cc(C)cc(C)c4)sc3n2)cc1 -19.9%
Cc1cc(-c2ccc(C)c(S(=O)(=O)N3CCOc4ccc(Cl)cc43)c2)on1 -13%
CCc1cccc(NC(=O)CN(C)S(=O)(=O)c2ccc3[nH]c4c(c3c2)CCCC4)c1 -1.92%
